# Source: patent US5480870A, “Tumor growth-inhibiting somatostatin analogues, pharmaceutical compositions containing them and process for preparing same” (Biosignal Kutato-Fejlesztokft, priority 1991, dated 1996)
# At least one peptide structure holds a part that was inferred or is arguable (an end, a ring closure or a residue). Bridge positions count the residues as written; N and C are the ends. Square brackets hold non-standard residues; d marks the D form. Peptide text beside a SMILES is read from it.
# What was measured:
# [1] = test system: HT 29: tumour cell line of human colon origin; experiment: Assay of the inhibition of cell division, HT 29; assay type: cell-based
# Procedure: (§1) The incorporation of [^3 H]-thymidine to tumour cells of various origin and measurement of the cell count were carried out according to the method of Keri et al. [Tumor Biology 9, 315 (1988)]. The biological activity of the analogues was expressed as the percentage of inhibition of the labelled thymidine incorporation or increase in the count of untreated cells used as control (Table III).
# [2] = test system: rat hypophysis (GH release); experiment: Assay of the growth hormone (GH): GHRH-elicited GH release, superfusion method; assay type: cell-based; settings: percentage of decrease (-) or increase (+) in GH amount released by GHRH
# Procedure: The release or inhibition, respectively, of the release of GH were measured on rat hypophysis by using the superfusion method [Vigh et al.: Peptides 5, 241 (1984)]. As control, the GH amount was considered which was released by the GH releasing hormone (GHRH) given in the same dose as the sample. The activity of the somatostatin analogue was expressed as the percentage of decrease or increase, respectively, in the GH amount released by GHRH (Table II).
# [3] = test system: MCF 7: tumour cell line of human breast origin; experiment: Assay of the inhibition of cell division, MCF 7; assay type: cell-based
# Procedure: as §1
# [4] = test system: DU 145: tumour cell line of human prostate; experiment: Assay of the inhibition of cell division, DU 145; assay type: cell-based; settings: DU 145, dose 10 μg
# [5] = test system: tyrosine kinase (HT 29 cells); experiment: Assay of the tyrosine kinase activity, HT 29 cells; assay type: cell-based, human
# Procedure: The tyrosine kinase activity was also determined according to the method of Keri et al. [Tumor Biology 9, 315 (1988)]. The activity of the analogues was characterized on the basis of their inhibitory effect in comparison to the incorporation of ^32 p isotope to untreated cells used as control (Table IV).
# [6] = test system: Lewis lung tumour (LLT) cells; experiment: Effect on the tumour growth in the metastasis model; assay type: in vivo; settings: LLT metastasis model in C57 B1 mice, 0.1 to 10 mg/kg daily 1 to 3 times, 5th to 13th days, route and dose per compound not stated
# [7] = test system: tyrosine kinase (SW 620 cells); experiment: Assay of the tyrosine kinase activity, SW 620 cells; assay type: cell-based, human
# [8] = test system: PC 3: tumour cell line of human prostate; experiment: Assay of the inhibition of cell division, PC 3; assay type: cell-based; settings: PC 3, dose 10 μg
compound,measurement,setting,value
CC(C)C[C@@H]1NC(=O)[C@H](CCCCN)NC(=O)[C@@H](Cc2c[nH]c3ccccc23)NC(=O)[C@H](Cc2ccc(O)cc2)NC(=O)[C@@H](NC(=O)[C@H](N)Cc2ccccc2)CSSC[C@@H](C(=O)N[C@H](C(N)=O)[C@@H](C)O)NC1=O [Example 4],Inhibition (%) of cell division,"[1]; HT 29, dose 1 μg, [3H]-thymidine incorporation or cell count vs untreated control",57%
same,Inhibition (%) of cell division,"[1]; HT 29, dose 10 μg",50%
same,Change of GH release,[2],-100%
same,Inhibition (%) of cell division,"[3]; MCF 7, dose 10 μg",31%
same,Inhibition (%) of cell division,[4],36%
same,Inhibition (%) of tyrosine kinase activity,"[5]; HT 29, dose 10 μg",50%
same,Inhibition (%) of tyrosine kinase activity,"[5]; HT 29, dose 30 μg",90%
same,Count of metastases (%) related to control (100%),[6],35%
C[C@@H](O)[C@H](NC(=O)[C@@H]1CSSC[C@H](NC(=O)[C@H](N)Cc2ccccc2)C(=O)N[C@@H](Cc2ccc(O)cc2)C(=O)N[C@H](Cc2c[nH]c3ccccc23)C(=O)N[C@@H](CCCCN)C(=O)N1)C(N)=O [Example 3] (H-[dF]CY[dW]KCT-NH2; disulfide 2-6),Inhibition (%) of cell division,"[1]; HT 29, dose 20 μg",75%
same,Change of GH release,[2],0%
same,Inhibition (%) of tyrosine kinase activity,"[7]; SW 620, dose 1 μg",84%
same,Inhibition (%) of tyrosine kinase activity,"[7]; SW 620, dose 10 μg",70%
same,Inhibition (%) of cell division,[4],68%
same,Inhibition (%) of cell division,[8],45%
CC(C)[C@@H]1NC(=O)[C@H](CCCCNC(=O)C(F)(F)F)NC(=O)[C@@H](Cc2c[nH]c3ccccc23)NC(=O)[C@H](Cc2ccc(O)cc2)NC(=O)[C@@H](NC(=O)[C@H](N)Cc2ccccc2)CSSC[C@@H](C(=O)N[C@H](C(N)=O)[C@@H](C)O)NC1=O [Example 13],Inhibition (%) of cell division,"[3]; MCF 7, dose 10 μg",13%
same,Inhibition (%) of cell division,"[3]; MCF 7, dose 20 μg",19%
same,Count of metastases (%) related to control (100%),[6],51%
C[C@@H](O)[C@H](NC(=O)[C@@H]1CSSC[C@H](NC(=O)[C@H](N)Cc2ccccc2)C(=O)N[C@@H](Cc2ccc(O)cc2)C(=O)N[C@H](Cc2c[nH]c3ccccc23)C(=O)N[C@@H](CCCCN)C(=O)NCCC(=O)N1)C(N)=O [Example 14],Inhibition (%) of cell division,"[1]; HT 29, dose 20 μg",13%
same,Change of GH release,[2],-10%
same,Inhibition (%) of cell division,"[3]; MCF 7, dose 20 μg",45%
CC(C)[C@@H]1NC(=O)[C@H](CCCCN)NC(=O)[C@@H](Cc2c[nH]c3ccccc23)NC(=O)[C@H](Cc2c[nH]cn2)NC(=O)[C@@H](NC(=O)[C@H](N)Cc2ccccc2)CSSC[C@@H](C(=O)N[C@H](C(N)=O)[C@@H](C)O)NC1=O [Example 12] (H-[dF]CH[dW]KVCT-NH2; disulfide 2-7),Change of GH release,[2],-100%
same,Inhibition (%) of cell division,"[3]; MCF 7, dose 10 μg",38%
same,Inhibition (%) of cell division,"[3]; MCF 7, dose 20 μg",44%
same,Inhibition (%) of tyrosine kinase activity,"[5]; HT 29, dose 10 μg",inactive
same,Inhibition (%) of tyrosine kinase activity,"[5]; HT 29, dose 30 μg",inactive
C[C@@H](O)[C@H](NC(=O)[C@@H]1CSSC[C@H](NC(=O)[C@H](N)Cc2ccccc2)C(=O)N[C@@H](Cc2ccc(O)cc2)C(=O)N[C@H](Cc2c[nH]c3ccccc23)C(=O)N[C@@H](CCCCN)C(=O)N2CCC[C@H]2C(=O)N1)C(N)=O [Example 15],Change of GH release,[2],0%
